The RNAGym collection of RNA variant scans (doi:10.7554/elife.90254)
The source gives no read counts; variants with many changes may rest on few reads.

B1: LINE1-mini (parent)
chain: GGCAGAGCUCAACACAGCGUGGCAAAGUGGCUGUGGCUAGACUGCC

Variants of: B1
Assay: self-cleavage, relative activity (ratio to wild type); higher = more cleavage; in vitro, sequencing; the parent is a self-cleaving ribozyme
In the case of U9G A11G A25U, the self-cleavage is reported as 0.
A14U U20G C23U C37U U38A C45A gave a self-cleavage of 0.2.
Variant G2U C23U G40A C42U has a self-cleavage of 0.05.
G27A U38G C45U showed a self-cleavage of 0.02.
C8G C18G G40C showed a self-cleavage of 0.02.
With A12G G33A A41C the self-cleavage was 0.04.
C13U A16G A41U gave a self-cleavage of 0.39.
G40A A41U U43A showed a self-cleavage of 0.02.
A16C G22A A25C gave a self-cleavage of 0.22.
With C10A A14C G29U C37U the self-cleavage was 0.01.
Work on G19A A25G C31A G33A yielded a self-cleavage of 0.04.
With A26C G29A G33U the self-cleavage was 0.05.
Work on A12C A26U G33C A41C yielded a self-cleavage of 0.02.
Variant G1C G36U C42U has a self-cleavage of 0.26.
Variant A6C G30U C31U has a self-cleavage of 0.06.
U32C C37G U43G C45U showed a self-cleavage of 0.2.
G7A C31A U34G C37G C42U showed a self-cleavage of 0.
With C8G U9G G19U G27U U28G U38G the self-cleavage was 0.02.
Variant G5U C15A C31A C46G has a self-cleavage of 0.02.
Variant A4U G17C G29A has a self-cleavage of 0.09.
For U20G A24U G29A C31G G40A C42A, the self-cleavage was 0.
G7C C15U U20G U28G C37G G44C C45A C46G showed a self-cleavage of 0.01.
Variant U9A A14U A16G G30U has a self-cleavage of 0.14.
For G2U U9A G19C G36U, the self-cleavage was 0.02.
For A16G C18A C46A, the self-cleavage was 0.09.
In the case of C18A A24G G30C, the self-cleavage is reported as 0.36.
In the case of C10A A26U G36U A41U, the self-cleavage is reported as 0.01.
With A4U U9G A16G G35A the self-cleavage was 0.11.
With A24C A39C A41C the self-cleavage was 0.05.
U20G A24C A26C A39U showed a self-cleavage of 0.03.
With C10A G17A C18A U43G the self-cleavage was 0.02.
In the case of C13U G21C G44C, the self-cleavage is reported as 0.03.
With G2A G5C U34G G40U the self-cleavage was 0.06.
With A4U A24U G36C G44U the self-cleavage was 0.04.
Variant U9C A12U C42G G44U has a self-cleavage of 0.03.
A6U G19C A26U gave a self-cleavage of 0.39.
Work on U9A C18A U20C G27A C37G yielded a self-cleavage of 0.06.
In the case of A11G C31A U34A U38C, the self-cleavage is reported as 0.
In the case of G1U A4C A25G C46U, the self-cleavage is reported as 0.02.
Variant A26G G27C G30A U32C has a self-cleavage of 0.17.
Variant G1A C15A U20A has a self-cleavage of 0.06.
For A11G U20C A25U, the self-cleavage was 0.04.
With C13U G22A A26U G27C the self-cleavage was 0.06.
Variant G21U U38G A41C has a self-cleavage of 0.02.
Work on C18U U20C C23A G40U yielded a self-cleavage of 0.08.
In the case of G7U G33A A39G, the self-cleavage is reported as 0.26.
A6G C23A G35U gave a self-cleavage of 0.05.
C15G A26C C45A showed a self-cleavage of 0.02.
With G2U C3U C13U A14U C15G the self-cleavage was 0.05.
Variant C3U G17U C18G G33U C45A has a self-cleavage of 0.12.
Variant G7C C10A A11C C31U has a self-cleavage of 0.01.
In the case of G30A G33C A41U, the self-cleavage is reported as 0.08.
U28C A41U G44A showed a self-cleavage of 0.16.
For C8G G19C G36C, the self-cleavage was 0.05.
C13G G21C C31U U38A showed a self-cleavage of 0.02.
In the case of C18A G30A U32G C45U, the self-cleavage is reported as 0.01.
With G1U C13A A25G U28G the self-cleavage was 0.
In the case of C8U C15A G17A, the self-cleavage is reported as 0.68.
G5U G17C C18A C31A G44C showed a self-cleavage of 0.
In the case of G2U G21U A25U A26U C46A, the self-cleavage is reported as 0.03.
Variant A12G G19C U28G G29A G40A C45A has a self-cleavage of 0.02.
Work on A16G G27U G33U yielded a self-cleavage of 0.06.
With A4C U32C G44U the self-cleavage was 0.11.
With G1U G17C C37A the self-cleavage was 0.08.
G1A A4C C8A U34G showed a self-cleavage of 0.32.
Variant A14U A24U C45G has a self-cleavage of 0.15.
In the case of C8A C13U G27C C42U, the self-cleavage is reported as 0.16.
Work on G17A U32A C42U C45G yielded a self-cleavage of 0.01.
C3G G7A U9C A14C G21U G33A U34A C37G showed a self-cleavage of 0.03.
In the case of C8G A14C A16U, the self-cleavage is reported as 0.07.
In the case of U9C C18A G36A U38C, the self-cleavage is reported as 0.02.
G7A A24U C31U showed a self-cleavage of 0.03.
G2U C15G G33A U43A showed a self-cleavage of 0.06.
With G1U G7A C8U U9G C23U C45U the self-cleavage was 0.01.
A6U C18U G22C gave a self-cleavage of 0.47.
With G27U G33C U38A the self-cleavage was 0.07.
G21U U32G G35A gave a self-cleavage of 0.03.
G22U C23A G35C C37G gave a self-cleavage of 0.09.
Variant G1A G5U C10A has a self-cleavage of 0.09.
For C8G C13A C18A G27A C37A U43A, the self-cleavage was 0.05.
In the case of C13A G29C C31U G36C, the self-cleavage is reported as 0.36.
Work on U20C A24C U28C G30U C31U G33A yielded a self-cleavage of 0.08.
G7A C15A G17A showed a self-cleavage of 0.11.
A12C C18G A39U G40A G44C gave a self-cleavage of 0.
C15G C23U U32C U34C gave a self-cleavage of 0.03.
A6U G19U G36U gave a self-cleavage of 0.06.
G5U C15U G17U showed a self-cleavage of 0.06.
In the case of U28G U32A U34G G35C U38C, the self-cleavage is reported as 0.05.
C13U U28C U32G gave a self-cleavage of 0.01.
For G2C C23U A25C G27A G30C, the self-cleavage was 0.1.
With C8A C10G G44U the self-cleavage was 0.05.
For A6U A25C G27A U28G C31A U38G G44U C46A, the self-cleavage was 0.03.
Variant A14U C18U G19C has a self-cleavage of 0.65.
Work on A16C A25G A39U yielded a self-cleavage of 0.05.
Variant G2A G19A G44U has a self-cleavage of 1.6.
For G5A C18A G44C, the self-cleavage was 0.02.
In the case of A4G G5U G22U G30U G40U, the self-cleavage is reported as 0.09.
Variant A6C C10U C13G C42A has a self-cleavage of 0.05.
For G30U G33U C42U, the self-cleavage was 0.03.
In the case of G2U C8G A25C G30A A39G, the self-cleavage is reported as 0.01.
In the case of G21C C23U G40A, the self-cleavage is reported as 0.03.
With G2C G5A A26G the self-cleavage was 0.03.
With C3U A11C A12C G21U G30U G35U C37U C45A the self-cleavage was 0.
Work on G29A U32G C42U yielded a self-cleavage of 0.01.
C3G A4G A6U C18G G44C showed a self-cleavage of 0.4.
Variant A14U U20A G29C G44U has a self-cleavage of 0.33.
Work on G1A C10A C31G A39C yielded a self-cleavage of 0.01.
C15A G29C C45G gave a self-cleavage of 0.04.
G5A A6U A26U gave a self-cleavage of 0.13.
In the case of A6G U9A C37G C46U, the self-cleavage is reported as 0.02.
In the case of G1U G2C U38C C42A, the self-cleavage is reported as 0.04.
In the case of G1U G7C U32G C45G, the self-cleavage is reported as 0.04.
G17A G22A C42A showed a self-cleavage of 0.01.
With G17C U38A G40U the self-cleavage was 0.04.
Variant C13U G17U G33A C46A has a self-cleavage of 0.08.
Work on A6U A25G U32A yielded a self-cleavage of 0.1.
In the case of C13G G21U G29U A41U, the self-cleavage is reported as 0.12.
Work on U9A C15G G22U U28A C42A yielded a self-cleavage of 0.03.
With G7A C13A C15U G17U U20G the self-cleavage was 0.03.
G7U U9G G40A C42U C45G showed a self-cleavage of 0.09.
C31U C37U C42G showed a self-cleavage of 0.02.
Work on A6C A12C C13G C15U G30C yielded a self-cleavage of 0.02.
With G2A A12C U38A C42A the self-cleavage was 0.04.
With A11U A12U A41G G44C the self-cleavage was 0.02.
With C10G C23G C46G the self-cleavage was 0.03.
With G7U A11C U20C U28A G36A the self-cleavage was 0.02.
With A12C G21A A24U U34C G40U A41U the self-cleavage was 0.02.
With G2A U38C A41C the self-cleavage was 0.03.
In the case of A12G G30C G33A, the self-cleavage is reported as 0.08.
With C13A C18G G27C C46G the self-cleavage was 0.14.
In the case of A12U G17A G40A, the self-cleavage is reported as 0.02.
In the case of C3U C13U A25G G44U, the self-cleavage is reported as 0.08.
With G2A G7A A14C G30C the self-cleavage was 0.13.
Work on A4C G5A A6U C8A A11U G33U yielded a self-cleavage of 0.02.
Variant C8A A39C C46U has a self-cleavage of 0.05.
In the case of G2U G5A A16U C31G G36C, the self-cleavage is reported as 0.
With C13G G27C U28C the self-cleavage was 0.12.
For G7U C10A A12C A14C A16C G19A G35C, the self-cleavage was 0.01.
A14C G22U G29U showed a self-cleavage of 0.06.
In the case of C3A G33U G40U, the self-cleavage is reported as 0.33.
With C18G C37A C46G the self-cleavage was 0.06.
C13A U20G G35U gave a self-cleavage of 0.45.
For C18G C23U G27U G29A G30A, the self-cleavage was 1.43.
Work on G7U G22U G29U C46U yielded a self-cleavage of 0.03.
Variant C8A G21U G29A U34C has a self-cleavage of 0.16.
For A16C U20A G36A A39C G44C, the self-cleavage was 0.
In the case of A41C G44C C45A, the self-cleavage is reported as 0.03.
In the case of A4C C15U G17U, the self-cleavage is reported as 0.08.
Work on G2U A4U G5C C46G yielded a self-cleavage of 0.04.
In the case of G17A U20C G33C C45U, the self-cleavage is reported as 0.01.
With G2A C3A C15U G22C C31U G36C the self-cleavage was 0.42.
Variant A25C C31G C37A has a self-cleavage of 0.04.
Variant C37A G40U C46U has a self-cleavage of 0.14.
C10G A16C G21U C46G showed a self-cleavage of 0.02.
C10G C18G G30A gave a self-cleavage of 0.15.
C3U C8G C10A G33A C37G G40U gave a self-cleavage of 0.03.
Variant U9C G29A U32G has a self-cleavage of 0.01.
A6U C10A G27A U28C gave a self-cleavage of 0.03.
With G5C U9A G35C U38G the self-cleavage was 0.08.
In the case of G1U G7U U32A G40C C42A, the self-cleavage is reported as 0.02.
With G22C G35U G36A C37U the self-cleavage was 0.12.
With G2C C8G G17C the self-cleavage was 0.26.
In the case of A12C C15A G35U G40A, the self-cleavage is reported as 0.03.
With G1A A14C G33U U38A the self-cleavage was 0.06.
Variant A6G U9G G22A G27A U32A G35C U43G has a self-cleavage of 0.01.
With A4G G17U G29A G44C C46U the self-cleavage was 0.04.
For C13U A25G U38C, the self-cleavage was 0.03.
